The chains are these.
B1: chr5:173232108:173232568:-|three_prime_utr|ENSG00000183072|control|control|control (ssRNA)
RNA: GGGAGUUCUACAGUCCGACGAUCAAGGGGCUCCCAACAUGACCCUGAGUCCCCUGGAUUUUGCAUUCACUCCUGCGGAGACCUAGGAACUUUUUCUGUCCCACGCGCGUUUGUUCUUGCGCACGGGAGAGUUUGUGGCGGCGACAACAGAGGAUUGAGCAUCA
B2: chrX:14865087:14865190:-|CDS|ENSG00000181544|unk|FALSE|unique (ssRNA)
RNA: GGGAGUUCUACAGUCCGACGAUCAUAUUUUUUACUAAUCCUUCACAGUACUAAUAAAUUUGAAAUGCGUUUGAGUUUUAAACUAGGCUAUGAGAUGAAGGAUGGCCUAAGGGUCCUUAAUGGCCCUUUAAUUUUAUGGAGGCACAACAGAGGAUUGAGCAUCA
B3: chr12:52514574:52514941:-|three_prime_utr|ENSG00000186081|control|control|control (ssRNA)
RNA: GGGAGUUCUACAGUCCGACGAUCCCUGCUGCAAGUCACUGCCUUCCAAGUGCAGCAACCCAGCCCAUGGAGAUUGCCUCUUCUAGGCAGUUGCUCAAGCCAUGUUUUAUCCUUUUCUGGAGAGUAGUCUAGACCAAGCCAAUUCAACAGAGGAUUGAGCAUCA
B4: ENSG00000107863:be:win_3201|CDS|ENSG00000107863|bound_else_gene|NA|bound_elsewhere_windowed (ssRNA)
RNA: GGGAGUUCUACAGUCCGACGAUCAGCAGAACAGUUGCCAAAAACACCUCGCCAGAGUCUCAGCAUCAGGCAAACUUUGCUUGGUGCUAAAUCAGAGCCAAAGACUCAAAGCCCACACUCUCCGAAGGAAGAGUCGGAAAGGAACAACAGAGGAUUGAGCAUCA
B5: chr3:187234081:187235683:-|three_prime_utr|ENSG00000127241|control|control|control (ssRNA)
RNA: GGGAGUUCUACAGUCCGACGAUCACUUCCGACAGCACACUCCACAUUACUUAUCAGACCAUAUGGAAUGGAACACACUGACCUAGCGGUGGCUUCUCCUACCGAGACAGCCCCCAGGACCCUGAGAGGCAGAGUGUGGUAUAGCAACAGAGGAUUGAGCAUCA
B6: chr2:32415736:32415837:+|CDS|ENSG00000115760|unk|total|mutant (ssRNA)
RNA: GGGAGUUCUACAGUCCGACGAUCGCAGAGGAAUGUCCGUGGUGGAUAUUCCGUGCUUUAUAAAAUGAAUUAUGCCACUCGGACCGUGACUUCCGAAGAGGAGCCAAUAAAAAUACAACAUAUCAAAGAUCCCCAGGACACAAUCAACAGAGGAUUGAGCAUCA
B7: chr9:3247878:3248185:-|CDS|ENSG00000080298|control|control|control (ssRNA)
RNA: GGGAGUUCUACAGUCCGACGAUCCGAAUAUAUGUUUUACUUAGUAGAACAUCGUGUUGCUCAGGCAACAGGAGAGACUCCUAUAGCAGUCAUGGGCGAGGUAAGAGAGGCUGAAAGAGCUGUGACCCACUGGGUUAUUAAAAACAACAGAGGAUUGAGCAUCA
B8: chr11:28036422:28036524:-|CDS|ENSG00000121621|unk|total|mutant (ssRNA)
RNA: GGGAGUUCUACAGUCCGACGAUCCAGCUCAAUGAUUCUCUCCGCAAAGAACUUCAGCCUAUUGUAUAUACACCAGAAGACUGCCGAAAAGCUUUUCAAAAUCCGUCUACAGUAACCUUAAUGAAACCAUCAUCAUUUACUACACAACAGAGGAUUGAGCAUCA
B9: ENSG00000124766:be:win_1401|CDS_3pUTR|ENSG00000124766|bound_else_gene|NA|bound_elsewhere_windowed (ssRNA)
RNA: GGGAGUUCUACAGUCCGACGAUCCUCCAACCUGGUUUUCACCUACUGAAGGGCGCGCAGGCAGGGAGAAGGGCCGGGGGGGGUAGGAGAGGAGAAAAAAAAAGUGAAAAAAAGAAACGAAAAGGACAGACGAAGAGUUUAAAGCAACAGAGGAUUGAGCAUCA
B10: chr22:17178789:17181576:-|three_prime_utr|ENSG00000093072|control|control|control (ssRNA)
RNA: GGGAGUUCUACAGUCCGACGAUCGUUGGAGAGUGAGAAAAAUACUUUCAUGGAAAUCUGGAAGAAGAGAUGGGAUAAGUUCAUAGCAGAUGUGGCUACAAAGUGAGGAGAAGCUAGCCAGCCCUCUACAAGCUGUCUUCUUGCCAACAGAGGAUUGAGCAUCA
B11: chr9:34892658:34893152:-|CDS|ENSG00000187791|control|control|control (ssRNA)
RNA: GGGAGUUCUACAGUCCGACGAUCCCAUCACAGGGCUCCUCUUGCCUAGAGGCUUUGUCCACAUCUAGUGUGUCUUUUAAGCAUAGUCAGGAUCUGGGCUCCCCGAAAUCCAAAGAGCUUUCACUGGCAUCUGUAACUCCAACACAACAGAGGAUUGAGCAUCA
B12: chr1:212100457:212100572:+|CDS|ENSG00000143476|unk|total|mutant (ssRNA)
RNA: GGGAGUUCUACAGUCCGACGAUCAGAAGAGGCUCUGUCUCCUCCGUCUCUCCCAAGCCACCUUCAUCUUUCAAGAUGUCGAUCCGAAACUGGGUGACCCGAACACCUUCCUCAUCACCACCCAUCACUCCACCUGCUUCGGAGCAACAGAGGAUUGAGCAUCA
B13: chr14:71589133:71589262:+|CDS|ENSG00000197555|unk|FALSE|unique (ssRNA)
RNA: GGGAGUUCUACAGUCCGACGAUCGAGAUAGGUGGAGAAGGGGAGAGGAAAAUCAGCCUUUCAAAAUCAAAUUCUGGCUCCUUUAGUGGAUGUGAAAGUGCCUCCUUUGAGUCUACCCUUAGUUCCCAUUGCACAAAUGCAGGACAACAGAGGAUUGAGCAUCA
B14: chr17:69016252:69016390:-|CDS|ENSG00000154258|control|control|control (ssRNA)
RNA: GGGAGUUCUACAGUCCGACGAUCUUUUCAAUAGCAUGUAAUACAAAACGGCUGAAUUGCUUUCCUGUCCUCCUGGAUGUCAUUAGCAAUGGACUACUUGGAAUUUUUAAUUCGUCAGAACACAUUCAGACUGACAGAAGCACACAACAGAGGAUUGAGCAUCA
B15: chr7:16784014:16784129:+|3pUTR|ENSG00000106537|msi1_unk|FALSE|overlapping (ssRNA)
RNA: GGGAGUUCUACAGUCCGACGAUCGAUAAUUUACUUGUAGUCUUUUAUGAUUACACCAAUGUAUUCUAGAAAUAGUUAUGUCUUAGGAAAUUGUGGUUUAAUUUUUGACUUUUACAGGUAAGUGCAAAGGAGAAGUGGUUUCAUCAACAGAGGAUUGAGCAUCA
B16: chr17:39604750:39604851:-|3pUTR|ENSG00000171532|msi1|FALSE|unique (ssRNA)
RNA: GGGAGUUCUACAGUCCGACGAUCAUUUUGGCGGGAGGGGAAGUGGAUUGAGAGGAAAGAGAGAGGCCAAGACAAUUUGUAACUAGAAUCCGUUUUUCCCUUUUCCUUUUUUUAAACAAACAAACAUACAAAAAAAAAAAAAAACAACAGAGGAUUGAGCAUCA
B17: ENSG00000198589:be:win_401|CDS|ENSG00000198589|bound_else_gene|NA|bound_elsewhere_windowed (ssRNA)
RNA: GGGAGUUCUACAGUCCGACGAUCUUGAAAAAGUGCUUGGGAAAAUUGAAAAAGUUGACAAUAUGAUAGCAGAUCUUUUGGUUGACAUGUUGGGAGUGCUGGCUAGCUAUAAUUUGACAGUUCGCGAGCUAAAGCUUUUCUUCACAACAGAGGAUUGAGCAUCA
B18: chr19:3610644:3612413:-|three_prime_utr|ENSG00000105298|control|control|control (ssRNA)
RNA: GGGAGUUCUACAGUCCGACGAUCAGGGGGGUCACCAUUGAGCCUGCCAUGGUGAGCUGAGGAGACACUGGGACAGGCUGGCCUAGGGUCCUGAUGCAACGGAGGGGGCGCUAGGGGCAUCUUUCGAGCACGAGGGUGGCCAGCCAACAGAGGAUUGAGCAUCA
B19: ENSG00000070961:be:win_2501|CDS|ENSG00000070961|bound_else_gene|NA|bound_elsewhere_windowed (ssRNA)
RNA: GGGAGUUCUACAGUCCGACGAUCACUUUACAAGCAUUGUUAAAGCAGUUAUGUGGGGACGAAAUGUCUAUGACAGCAUCUCAAAAUUCCUUCAGUUCCAACUUACUGUUAAUGUAGUAGCAGUGAUUGUUGCUUUUACGGGCGCAACAGAGGAUUGAGCAUCA
B20: chr15:25371268:25371377:-|CDS|ENSG00000114062|unk|FALSE|unique (ssRNA)
RNA: GGGAGUUCUACAGUCCGACGAUCCACAAUGUAUACUCUCGAGAUCCUAAUUAUCUGAAUUUGUUCAUUAUCGUAAUGGAGAAUAGAAAUCUCCACAGUCCUGAAUAUCUGGAAAUGGCUUUGCCAUUAUUUUGCAAAGCGAUGCAACAGAGGAUUGAGCAUCA
B21: chr17:48622902:48623135:-|CDS|ENSG00000170689|control|control|control (ssRNA)
RNA: GGGAGUUCUACAGUCCGACGAUCUACCAGACGCUGGAGCUAGAGAAGGAGUUUCUGUUCAAUAUGUACCUCACCAGGGACCGUAGGCACGAAGUGGCCAGACUCCUCAAUCUGAGUGAGAGACAAGUCAAAAUCUGGUUUCAGCAACAGAGGAUUGAGCAUCA
B22: chr10:74136666:74136778:-|CDS|ENSG00000185009|unk|FALSE|unique (ssRNA)
RNA: GGGAGUUCUACAGUCCGACGAUCUUCAGAGGCUGCAAUUAAGGAUAAUGUGGUCAUAGUAUAUGAACUCUUAGAAGAAAUGUUAGACAAUGGAUUUCCACUGGCUACCGAAUCUAACAUUUUGAAAGAAUUGAUUAAACCACCCAACAGAGGAUUGAGCAUCA

The list shows a part of the results.

In this test the target is MSI1 full-length (mouse, UniProt Q61474 1-362). Description: nsRBNS (natural sequence RNA bind-n-seq); RBNS binding buffer (assumed for nsRBNS): 25 mM Tris pH 7.5, 150 mM KCl, 3 mM MgCl2, 0.01% Triton X-100, 500 ug/ml BSA, 20 U/ml SUPERase-In, 4 C; UNK is unkempt and MSI1 is Musashi-1; names of the RNAs are library labels; protein concentration not given here; high values mean tight binding.
Chain of UniProt Q61474 (Q61474 whole entry): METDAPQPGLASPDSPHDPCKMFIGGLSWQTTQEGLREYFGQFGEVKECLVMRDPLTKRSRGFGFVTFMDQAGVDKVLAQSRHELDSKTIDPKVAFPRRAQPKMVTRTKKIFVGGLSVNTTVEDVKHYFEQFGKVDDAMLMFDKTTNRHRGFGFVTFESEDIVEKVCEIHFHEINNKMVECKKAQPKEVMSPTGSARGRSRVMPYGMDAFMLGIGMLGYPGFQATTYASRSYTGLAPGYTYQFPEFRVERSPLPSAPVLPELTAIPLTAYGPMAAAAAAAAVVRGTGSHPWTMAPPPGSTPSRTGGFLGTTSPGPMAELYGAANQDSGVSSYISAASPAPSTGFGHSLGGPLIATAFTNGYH
For B1, the binding signal worked out at 0.423 enrichment R. B2 came in with a binding signal of 0.596 enrichment R. With B3, the binding signal turned out to be 1.06 enrichment R. The figure for B4 is 0.323 enrichment R; for B5 it is 0.56 enrichment R; for B6 it is 0.62 enrichment R. Take B7: the binding signal is 0.72 enrichment R. Turning to B8, the binding signal is 0.473 enrichment R. Molecule B9 returned a binding signal of 0.758 enrichment R. For the molecule B10, the binding signal stood at 0.721 enrichment R. B11 showed a binding signal of 0.372 enrichment R. Turning to B12, the binding signal was 0.426 enrichment R. In turn, B13 had a binding signal of 0.572 enrichment R. Consider B14, for which the binding signal is 1.55 enrichment R. Regarding B15, the binding signal worked out at 12.3 enrichment R.

Turning to B16, the binding signal was found to be 0.985 enrichment R. For B17, the binding signal is 0.316 enrichment R. Turning to B18, the binding signal was 0.74 enrichment R. Turning to B19, the binding signal came to 0.314 enrichment R. Molecule B20 yielded a binding signal of 2.23 enrichment R. As for B21, the binding signal is 0.411 enrichment R. B22 returned a binding signal of 0.651 enrichment R.

For the origin of these results see PMC12136788.
